# Reference: the supplement of paper PMC8728848
# This is one part of the list.
# B1: ABA (Agaricus bisporus), Q00022 (protein)
# chain: MTYTISIRVYQTTPKGFFRPVERTNWKYANGGTWDEVRGEYVLTMGGSGTSGSLRFVSSDTDESFVATFGVHNYKRWCDIVTNLTNEQTALVINQEYYGVPIRDQARENQLTSYNVANAKGRRFAIEYTVTEGDNLKANLIIG
# Key:
# Assay in all cases: glycan array binding signal (z-score within array); higher = stronger binding
# Conditions in all cases: glycan notation: IUPAC condensed, linker removed
# [1] = target: Gal(a1-4)Gal(b1-4)GlcNAc(b1-2)Man(a1-3)[Gal(a1-4)Gal(b1-4)GlcNAc(b1-2)Man(a1-6)]Man(b1-4)GlcNAc(b1-4)GlcNAc
# Procedure, shortened: (§1)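 Glycan array binding is given as a within-array Z-score, which can be read as non-binding when negative. The arrays, 3228 of them, came from the Consortium for Functional Glycomics database and were retained only where the protein sequence was available. Z-scores were averaged across arrays of the same protein sequence at different concentrations or buffers and across linkers.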
# [2] = target: Gal(a1-4)Gal(b1-4)GlcNAc(b1-3)Gal(b1-4)Glc
# Procedure, shortened: as §1
# Gal(a1-4)GlcNAc = target: Gal(a1-4)GlcNAc
# Procedure, shortened: as §1
# Gal(a1-6)Glc = target: Gal(a1-6)Glc
# Procedure, shortened: as §1
# Gal(b1-2)Gal = target: Gal(b1-2)Gal
# Procedure, shortened: as §1
# Gal(b1-3)Gal = target: Gal(b1-3)Gal
# Procedure, shortened: as §1
# Gal(b1-3)Gal(b1-4)GlcNAc = target: Gal(b1-3)Gal(b1-4)GlcNAc
# Procedure, shortened: as §1
# Gal(b1-3)GalNAc = target: Gal(b1-3)GalNAc
# Procedure, shortened: as §1
# [3] = target: Gal(b1-3)GalNAc(a1-3)[Fuc(a1-2)]Gal(b1-4)Glc
# Procedure, shortened: as §1
# [4] = target: Gal(b1-3)GalNAc(a1-3)[Fuc(a1-2)]Gal(b1-4)GlcNAc
# Procedure, shortened: as §1
# Gal(b1-3)GalNAc(b1-3)Gal = target: Gal(b1-3)GalNAc(b1-3)Gal
# Procedure, shortened: as §1
# [5] = target: Gal(b1-3)GalNAc(b1-3)Gal(a1-4)Gal(b1-4)Glc
# Procedure, shortened: as §1
# [6] = target: Gal(b1-3)GalNAc(b1-4)Gal(b1-4)Glc
# Procedure, shortened: as §1
# [7] = target: Gal(b1-3)GalNAc(b1-4)[Neu5Ac(a2-3)]Gal(b1-4)Glc
# Procedure, shortened: as §1
# Gal(b1-3)GlcNAc = target: Gal(b1-3)GlcNAc
# Procedure, shortened: as §1
# [8] = target: Gal(b1-3)GlcNAc(a1-3)Gal(b1-4)GlcNAc
# Procedure, shortened: as §1
# [9] = target: Gal(b1-3)GlcNAc(a1-6)Gal(b1-4)GlcNAc
# Procedure, shortened: as §1
# Gal(b1-3)GlcNAc(b1-2)Man = target: Gal(b1-3)GlcNAc(b1-2)Man
# Procedure, shortened: as §1
# [10] = target: Gal(b1-3)GlcNAc(b1-2)Man(a1-3)[Gal(b1-3)GlcNAc(b1-2)Man(a1-6)]Man(b1-4)GlcNAc(b1-4)GlcNAc
# Procedure, shortened: as §1
# [11] = target: Gal(b1-3)GlcNAc(b1-2)Man(a1-3)[Gal(b1-3)GlcNAc(b1-2)Man(a1-6)]Man(b1-4)GlcNAc(b1-4)[Fuc(a1-6)]GlcNAc
# Procedure, shortened: as §1
# [12] = target: Gal(b1-3)GlcNAc(b1-2)Man(a1-3)[GlcNAc(b1-4)][Gal(b1-3)GlcNAc(b1-2)Man(a1-6)]Man(b1-4)GlcNAc(b1-4)GlcNAc
# Procedure, shortened: as §1
# [13] = target: Gal(b1-3)GlcNAc(b1-2)[Gal(b1-3)GlcNAc(b1-6)]Man(a1-6)[Gal(b1-3)GlcNAc(b1-2)Man(a1-3)]Man(b1-4)GlcNAc(b1-4)GlcNAc
# Procedure, shortened: as §1
# [14] = target: Gal(b1-3)GlcNAc(b1-3)Gal(b1-3)GlcNAc
# Procedure, shortened: as §1
# [15] = target: Gal(b1-3)GlcNAc(b1-3)Gal(b1-4)Glc
# Procedure, shortened: as §1
# [16] = target: Gal(b1-3)GlcNAc(b1-3)Gal(b1-4)GlcNAc
# Procedure, shortened: as §1
# [17] = target: Gal(b1-3)GlcNAc(b1-3)Gal(b1-4)GlcNAc(b1-2)Man(a1-3)[Gal(b1-3)GlcNAc(b1-3)Gal(b1-4)GlcNAc(b1-2)Man(a1-6)]Man(b1-4)GlcNAc(b1-4)GlcNAc
# Procedure, shortened: as §1
# [18] = target: Gal(b1-3)GlcNAc(b1-3)Gal(b1-4)GlcNAc(b1-2)[Gal(b1-3)GlcNAc(b1-3)Gal(b1-4)GlcNAc(b1-6)]Man(a1-6)[Gal(b1-3)GlcNAc(b1-3)Gal(b1-4)GlcNAc(b1-2)Man(a1-3)]Man(b1-4)GlcNAc(b1-4)[Fuc(a1-6)]GlcNAc
# Procedure, shortened: as §1
# [19] = target: Gal(b1-3)GlcNAc(b1-3)Gal(b1-4)GlcNAc(b1-3)Gal(b1-4)GlcNAc(b1-2)[Gal(b1-3)GlcNAc(b1-3)Gal(b1-4)GlcNAc(b1-3)Gal(b1-4)GlcNAc(b1-6)]Man(a1-6)[Gal(b1-3)GlcNAc(b1-3)Gal(b1-4)GlcNAc(b1-3)Gal(b1-4)GlcNAc(b1-2)Man(a1-3)]Man(b1-4)GlcNAc(b1-4)[Fuc(a1-6)]GlcNAc
# Procedure, shortened: as §1
# [20] = target: Gal(b1-3)GlcNAc(b1-3)Gal(b1-4)GlcNAc(b1-6)[Gal(b1-3)GlcNAc(b1-3)]Gal(b1-4)Glc
# Procedure, shortened: as §1
# [21] = target: Gal(b1-3)GlcNAc(b1-3)Gal(b1-4)[Fuc(a1-3)]GlcNAc
# Procedure, shortened: as §1
# [22] = target: Gal(b1-3)GlcNAc(b1-3)Gal(b1-4)[Fuc(a1-3)]GlcNAc(b1-6)[Gal(b1-3)GlcNAc(b1-3)]Gal(b1-4)Glc
# Procedure, shortened: as §1
# [23] = target: Gal(b1-3)GlcNAc(b1-3)GalNAc
# Procedure, shortened: as §1
# [24] = target: Gal(b1-3)GlcNAc(b1-6)Gal(b1-4)GlcNAc
# Procedure, shortened: as §1
# [25] = target: Gal(b1-3)GlcNAc(b1-6)GalNAc
# Procedure, shortened: as §1
# [26] = target: Gal(b1-3)GlcNAc(b1-6)[Gal(b1-3)]GalNAc
# Procedure, shortened: as §1
# Gal(b1-3)GlcNAc6S = target: Gal(b1-3)GlcNAc6S
# Procedure, shortened: as §1
# [27] = target: Gal(b1-3)[Fuc(a1-4)]GlcNAc
# Procedure, shortened: as §1
# [28] = target: Gal(b1-3)[Fuc(a1-4)]GlcNAc(b1-2)Man
# Procedure, shortened: as §1
# [29] = target: Gal(b1-3)[Fuc(a1-4)]GlcNAc(b1-2)Man(a1-3)[Gal(b1-3)[Fuc(a1-4)]GlcNAc(b1-2)Man(a1-6)]Man(b1-4)GlcNAc(b1-4)[Fuc(a1-6)]GlcNAc
# Procedure, shortened: as §1
# [30] = target: Gal(b1-3)[Fuc(a1-4)]GlcNAc(b1-3)Gal(b1-3)[Fuc(a1-4)]GlcNAc
# Procedure, shortened: as §1
# [31] = target: Gal(b1-3)[Fuc(a1-4)]GlcNAc(b1-3)Gal(b1-4)GlcNAc
# Procedure, shortened: as §1
# [32] = target: Gal(b1-3)[Fuc(a1-4)]GlcNAc(b1-3)Gal(b1-4)[Fuc(a1-3)]GlcNAc
# Procedure, shortened: as §1
# [33] = target: Gal(b1-3)[Fuc(a1-4)]GlcNAc(b1-6)GalNAc
# Procedure, shortened: as §1
# [34] = target: Gal(b1-3)[GlcNAc(b1-6)]GalNAc
# Procedure, shortened: as §1
# [35] = target: Gal(b1-3)[Neu5Ac(a2-6)]GalNAc
# Procedure, shortened: as §1
binder,measurement,setting,value
B1,glycan array binding signal (z-score),[1],-0.263
same,glycan array binding signal (z-score),[2],-0.249
same,glycan array binding signal (z-score),Gal(a1-4)GlcNAc,-0.216
same,glycan array binding signal (z-score),Gal(a1-6)Glc,-0.167
same,glycan array binding signal (z-score),Gal(b1-2)Gal,-0.096
same,glycan array binding signal (z-score),Gal(b1-3)Gal,-0.188
same,glycan array binding signal (z-score),Gal(b1-3)Gal(b1-4)GlcNAc,-0.268
same,glycan array binding signal (z-score),Gal(b1-3)GalNAc,0.383
same,glycan array binding signal (z-score),[3],3.56
same,glycan array binding signal (z-score),[4],3.27
same,glycan array binding signal (z-score),Gal(b1-3)GalNAc(b1-3)Gal,-0.28
same,glycan array binding signal (z-score),[5],-0.187
same,glycan array binding signal (z-score),[6],-0.236
same,glycan array binding signal (z-score),[7],-0.251
same,glycan array binding signal (z-score),Gal(b1-3)GlcNAc,-0.243
same,glycan array binding signal (z-score),[8],-0.285
same,glycan array binding signal (z-score),[9],-0.27
same,glycan array binding signal (z-score),Gal(b1-3)GlcNAc(b1-2)Man,-0.228
same,glycan array binding signal (z-score),[10],0.246
same,glycan array binding signal (z-score),[11],-0.167
same,glycan array binding signal (z-score),[12],-0.15
same,glycan array binding signal (z-score),[13],-0.214
same,glycan array binding signal (z-score),[14],-0.259
same,glycan array binding signal (z-score),[15],-0.241
same,glycan array binding signal (z-score),[16],-0.216
same,glycan array binding signal (z-score),[17],-0.219
same,glycan array binding signal (z-score),[18],-0.175
same,glycan array binding signal (z-score),[19],-0.165
same,glycan array binding signal (z-score),[20],-0.319
same,glycan array binding signal (z-score),[21],-0.245
same,glycan array binding signal (z-score),[22],-0.161
same,glycan array binding signal (z-score),[23],-0.179
same,glycan array binding signal (z-score),[24],-0.3
same,glycan array binding signal (z-score),[25],-0.25
same,glycan array binding signal (z-score),[26],0.023
same,glycan array binding signal (z-score),Gal(b1-3)GlcNAc6S,-0.257
same,glycan array binding signal (z-score),[27],-0.208
same,glycan array binding signal (z-score),[28],0.075
same,glycan array binding signal (z-score),[29],0.431
same,glycan array binding signal (z-score),[30],-0.214
same,glycan array binding signal (z-score),[31],0.229
same,glycan array binding signal (z-score),[32],-0.226
same,glycan array binding signal (z-score),[33],-0.229
same,glycan array binding signal (z-score),[34],0.686
same,glycan array binding signal (z-score),[35],-0.104
